# Measured values from the antibiotic and cytotoxicity screens of Wong et al. (2023).
# This is one part of the list.
# Test system: HSkMC (human skeletal muscle cells)
# Experiment: cytotoxicity call (relative viability < 0.9)
# Conditions: 10 µM
row,SMILES,cytotoxicity call
1,CCC(=O)N[C@H]1CC[C@@H](CC(=O)OC)O[C@@H]1CO,inactive
2,CC(C)NC(=O)Nc1cccc2c1O[C@H](CN(C)S(=O)(=O)c1ccc(F)cc1)[C@@H](C)CN([C@H](C)CO)C2=O,inactive
3,CC(C)(C)NC(=O)[C@@H]1CN(Cc2cccnc2)CCN1C[C@@H](O)C[C@@H](Cc1ccccc1)C(=O)N[C@H]1c2ccccc2C[C@H]1O,inactive
4,C[C@@H]1CCCCO[C@@H](CN(C)S(=O)(=O)c2cccs2)[C@@H](C)CN([C@@H](C)CO)C(=O)c2cc(NC(=O)c3ccccc3)ccc2O1,inactive
5,Cc1noc(C)c1S(=O)(=O)Nc1ccc2c(c1)C(=O)N([C@H](C)CO)C[C@H](C)[C@H](CN(C)C(=O)Nc1ccccc1)O2,inactive
6,C[C@@H]1CN([C@@H](C)CO)C(=O)c2cc(NC(=O)NC3CCCCC3)ccc2O[C@@H](C)CCCCO[C@@H]1CN(C)C(=O)Nc1ccccc1,inactive
7,COc1cccc(S(=O)(=O)Nc2ccc3c(c2)[C@@H]2C[C@@H](CC(=O)NCC(F)(F)F)O[C@@H](CO)[C@@H]2O3)c1,inactive

# Test system: S. aureus RN4220
# Experiment: growth inhibition call (relative growth <= 0.2)
# Conditions: 50 µM
row,SMILES,growth inhibition call
1,Cc1ccc(S(=O)(=O)N(C)C[C@H]2Oc3ccc(NC(=O)Nc4cccc5ccccc45)cc3CC(=O)N([C@H](C)CO)C[C@H]2C)cc1,inactive
2,C[C@H](CO)N1C[C@H](C)[C@@H](CN(C)C(=O)NC2CCCCC2)Oc2ccc(NC(=O)Nc3ccc(C(F)(F)F)cc3)cc2CC1=O,inactive
3,Nn1c(CO)nc2ccccc21,inactive
4,C[C@H]1CN([C@@H](C)CO)S(=O)(=O)c2ccc(C3=CCCCC3)cc2O[C@@H]1CN(C)S(=O)(=O)c1cn(C)cn1,inactive
5,CCc1c(C(=O)OC)nnn1-c1nonc1N,inactive
6,Cc1noc(C)c1NC(=O)Nc1ccc2c(c1)C(=O)N([C@@H](C)CO)C[C@@H](C)[C@@H](CN(C)C(=O)NC1CCCCC1)OCCCC[C@@H](C)O2,inactive
7,CC(C)NC(=O)N(C)C[C@@H]1Oc2ccc(NC(=O)CCCN(C)C)cc2C(=O)N([C@H](C)CO)C[C@@H]1C,inactive
8,C[C@@H]1CN([C@@H](C)CO)C(=O)c2cccc(NC(=O)Nc3ccccc3)c2O[C@H]1CN(C)Cc1ccc(C(F)(F)F)cc1,inactive
9,C[C@H]1CN([C@@H](C)CO)S(=O)(=O)c2ccc(C#Cc3ccccc3F)cc2O[C@@H]1CN(C)C(=O)Cc1cccnc1,inactive
10,C[C@@H]1CN([C@H](C)CO)C(=O)c2cccc(NC(=O)Nc3ccc4c(c3)OCO4)c2O[C@H]1CN(C)Cc1ccc(Cl)c(Cl)c1,inactive
11,C[C@@H]1CCCCO[C@@H](CN(C)C(=O)Nc2ccc(F)cc2)[C@H](C)CN([C@H](C)CO)C(=O)c2cc(NC(=O)Nc3ccccc3)ccc2O1,inactive
12,C[C@H]1CN([C@@H](C)CO)C(=O)c2cccc(NC(=O)Nc3ccc4c(c3)OCO4)c2O[C@@H]1CN(C)Cc1ccc(Cl)c(Cl)c1,inactive
13,C[C@@H]1CCCCO[C@@H](CN(C)CC2CCCCC2)[C@@H](C)CN([C@H](C)CO)C(=O)c2cc(NC(=O)Nc3ccc(F)cc3)ccc2O1,inactive
14,C[C@H]1CCCCO[C@H](CN(C)C(=O)c2ccncc2)[C@@H](C)CN([C@@H](C)CO)C(=O)c2cc(NS(=O)(=O)c3ccc(Cl)cc3)ccc2O1,inactive
15,C[C@@H]1CCCCO[C@H](CN(C)CC2CC2)[C@@H](C)CN([C@H](C)CO)C(=O)c2cc(NC(=O)Nc3cccc4ccccc34)ccc2O1,inactive
16,COc1ccc(C#Cc2ccc3c(c2)O[C@H](CN(C)S(=O)(=O)c2ccccc2F)[C@@H](C)CN([C@@H](C)CO)S3(=O)=O)cc1,inactive
17,CC(C)CC#Cc1ccc2c(c1)O[C@H](CN(C)C(=O)c1ccncc1)[C@H](C)CN([C@H](C)CO)S2(=O)=O,inactive
18,O=C(/C=C/c1ccc(O)c(O)c1)O[C@@H]1C[C@](OC(=O)/C=C/c2ccc(O)c(O)c2)(C(=O)O)C[C@@H](O)[C@H]1O,inactive
19,C[C@@H]1CCCCO[C@H](CN(C)S(=O)(=O)c2ccc(F)cc2)[C@H](C)CN([C@@H](C)CO)C(=O)c2cc(NC(=O)CCC(F)(F)F)ccc2O1,inactive

row,SMILES,growth inhibition call
1,COc1ccc(S(=O)(=O)Nc2cccc3c2O[C@H](CN(C)Cc2ccc(-c4ccccc4)cc2)[C@H](C)CN([C@@H](C)CO)C3=O)cc1,inactive
2,O=C(C[C@@H]1C[C@H]2c3cc(NS(=O)(=O)c4ccc(F)cc4)ccc3O[C@H]2[C@@H](CO)O1)NCc1cccc(F)c1,inactive
3,C[C@H]1CCCCO[C@H](CN(C)C(=O)c2ccccc2)[C@@H](C)CN([C@@H](C)CO)C(=O)c2cc(NC(=O)NC3CCCCC3)ccc2O1,inactive
4,C[C@@H]1CN([C@@H](C)CO)S(=O)(=O)c2ccc(C#CC(C)(C)O)cc2O[C@H]1CN(C)Cc1ccc(F)cc1,inactive
5,O=C(C[C@@H]1C[C@H]2c3cc(NC(=O)NC4CCCC4)ccc3O[C@H]2[C@@H](CO)O1)NCc1ccc(Oc2ccccc2)cc1,inactive
6,Cc1noc(C)c1S(=O)(=O)N(C)C[C@H]1OCCCC[C@H](C)Oc2ccc(NS(C)(=O)=O)cc2C(=O)N([C@@H](C)CO)C[C@@H]1C,inactive
7,Cc1ccc(S(=O)(=O)N[C@@H](Cc2ccccc2)C(=O)NCCCn2cc(CCC(=O)NO)nn2)cc1,inactive
8,C[C@H](CO)N1C[C@H](C)[C@H](CN(C)Cc2ccc(C(=O)O)cc2)Oc2c(NC(=O)C3CCOCC3)cccc2C1=O,inactive
9,COc1ccc(S(=O)(=O)Nc2ccc3c(c2)CC(=O)N([C@@H](C)CO)C[C@H](C)[C@H](CN(C)S(=O)(=O)c2cccs2)O3)cc1,inactive
10,C[C@H]1CN([C@@H](C)CO)C(=O)c2cc(NS(=O)(=O)c3cn(C)cn3)ccc2O[C@H]1CN(C)Cc1ccccc1,inactive
11,COc1ccc(NC(=O)Nc2ccc3c(c2)C(=O)N([C@H](C)CO)C[C@@H](C)[C@@H](CN(C)S(C)(=O)=O)O3)cc1,inactive
12,CCC(=O)N[C@H]1CC[C@@H](CC(=O)OC)O[C@@H]1CO,inactive
13,CC(C)NC(=O)Nc1cccc2c1O[C@H](CN(C)S(=O)(=O)c1ccc(F)cc1)[C@@H](C)CN([C@H](C)CO)C2=O,inactive
14,CC(C)(C)NC(=O)[C@@H]1CN(Cc2cccnc2)CCN1C[C@@H](O)C[C@@H](Cc1ccccc1)C(=O)N[C@H]1c2ccccc2C[C@H]1O,inactive
15,C[C@@H]1CCCCO[C@@H](CN(C)S(=O)(=O)c2cccs2)[C@@H](C)CN([C@@H](C)CO)C(=O)c2cc(NC(=O)c3ccccc3)ccc2O1,inactive
16,Cc1noc(C)c1S(=O)(=O)Nc1ccc2c(c1)C(=O)N([C@H](C)CO)C[C@H](C)[C@H](CN(C)C(=O)Nc1ccccc1)O2,inactive
17,C[C@@H]1CN([C@@H](C)CO)C(=O)c2cc(NC(=O)NC3CCCCC3)ccc2O[C@@H](C)CCCCO[C@@H]1CN(C)C(=O)Nc1ccccc1,inactive
18,COc1cccc(S(=O)(=O)Nc2ccc3c(c2)[C@@H]2C[C@@H](CC(=O)NCC(F)(F)F)O[C@@H](CO)[C@@H]2O3)c1,inactive
